# Measured values reported in PubChem BioAssay AID1362 (SRMLSC, 2008).
# This is one part of the list. The main result of the screen is listed elsewhere. These columns were measured beside it and carry no call. Most of these compounds were active or inconclusive in the main read-out, so they are no random draw.
# Experiment: growth inhibition of WT strain, primary screen, mitochondrial fusion inhibitor project, WT and mutant strains, chemical genetic (AID 1362); also: tested in S. cerevisiae
# Conditions: mitochondrial fusion phenotypic screen, at 10 µM
row,Compound,inhibition [%]
1,COc1cccc(-n2nc(C#N)c(Cl)cc2=O)c1,76.2
2,Cc1cccc(/C=N/Nc2ccc3ccccc3n2)c1,45.4
3,Cc1nc(C)c(-c2csc(Nc3ccc(F)cc3)n2)s1,72.3
4,COc1ccc(/C=N/NC(=S)SC)cc1OC,19
5,O=C(c1cc(Br)c(Br)s1)N1CCN(C/C=C/c2ccccc2)CC1,39.4
6,CC1CC(C)CN(C(=O)c2cc3cc(Br)cc(Br)c3o2)C1 (stereo unspecified),19.3
7,Cc1[nH]n(-c2ccc([N+](=O)[O-])cc2)c(=O)c1C=NCCN1CCN(C(=O)C(C)C)CC1,53.4
8,CC(C)Cn1c(O)c(/C=C2\C=NN=C2c2ccccc2)sc1=S,21.8
9,CCc1ccc(OCC(=O)N2c3ccccc3CCc3ccccc32)cc1,74.4
10,CC(C)C(=O)Nc1ccc(C(=O)NNC(=O)CCCOc2ccc(Cl)cc2Cl)cc1,-3.93
11,CCCCCCCCOC(=O)c1nc(Cl)c(Cl)c(N)c1Cl,22.9
12,COc1ccc(S(=O)(=O)Nc2ccccc2C(=O)Nc2nc(-c3ccc(F)cc3)cs2)cc1OC,12.1
13,Cc1ccc(-n2cc(C(=O)c3ccc(F)cc3)nn2)cc1Cl,-3.45
14,O=C(Oc1cccnc1)c1ccc(Cl)c(Cl)c1,-11.7
15,COC(=O)CN1C(c2cccc(Cl)c2)=Nc2ccc(Cl)cc2C1c1ccccc1 (stereo unspecified),20.8
16,CCOc1ccccc1C(=O)Nc1cc(OC)ccc1OC,49.8
17,CC(CO)Nc1nc(SCc2ccccc2)nc2sc3c(c12)CCC3 (stereo unspecified),61.6
18,CCn1c2ccccc2c2nnc(SCc3ccccc3)nc21,39.8
19,COc1ccc(Nc2ncnc3scc(-c4ccc(OC)cc4)c23)cc1,42.9
20,Clc1ccc(OCCOCCN2CCc3ccccc3C2)c(Cl)c1,69.7
21,CCC1CSC(Nc2ccc(C(=O)/C=C/c3ccc(OC)c(OC)c3)cc2)=N1 (stereo unspecified),30.1
22,S=C(NCc1ccco1)N1CCN(c2ccccc2Cl)CC1,71
23,Cc1ccc(N=Nc2c(C)[nH]n(C(N)=S)c2=O)cc1C,52.7
24,COC(=O)c1ccn(C(=O)c2ccc(Cl)cc2)n1,17.6

row,Compound,inhibition [%]
1,COc1ccccc1NC(=O)c1cccc(NC(=O)c2ccco2)c1,-17
2,O=C(NC1CCCCC1)N1CCSC1=Nc1ccccc1,33.8
3,CCNc1nc(NCC)nc(SCCOc2ccc(C)cc2)n1,82.4
4,CN1N=C(c2ccc(F)c(F)c2)CSC1=NCc1ccccc1,48.5
5,COc1ccccc1CNC(=O)c1ccccc1OCc1ccc(F)cc1,12
6,O=C(C1CCCCC1)N(Cc1nc2sc3c(c2c(=O)[nH]1)CCCC3)Cc1cccs1,26.7
7,C=CCSc1nc2c(c(C3CC=CCC3)c1C#N)CCC2 (stereo unspecified),-8.51
8,CCCc1nc2c(=O)n(C)c(=O)nc-2n(C)n1,59.4
9,O=C(Nc1ccc(Br)c(C(F)(F)F)c1)c1ccccc1,44
10,COc1cccc(-c2cc3nc4c(c(N5CCC6(CC5)OCCO6)n3n2)CCC4)c1,46.8
11,COc1ccc2c(c1)CCc1c-2n[nH]c1C(=O)O,-9.55
12,CCOc1ccc(Oc2c(/C=N/NC(=O)COc3ccccc3OC)c(C)nn2-c2ccccc2)cc1,6.66
13,O=C(Nc1ccc(S(=O)(=O)N2CCN(Cc3ccccc3)CC2)cc1)c1cnccn1,16.4
14,C/C(=N\Nc1cc(-c2ccccc2)nc(-c2ccccc2)n1)c1ccc(O)c(C)c1,34.3
15,CCCCc1ccc(/C=C2\C(=O)c3ccccc3C(O)=C2C(=O)OCC)cc1,47.6
16,Cc1nc(N2CCCCC2C)c2c(C)c(C(=O)Nc3cccc(C(F)(F)F)c3)sc2n1 (stereo unspecified),-3.49
17,CC(=O)Nc1ccc(S(=O)(=O)NCCC(=O)OCCN2C(=O)c3ccccc3C2=O)cc1,31.1
18,Cc1ccc(Nc2nc(N)c([N+](=O)[O-])c(N3CCCC(C)C3)n2)cc1C (stereo unspecified),93.2
19,CC1=NNC(=O)/C1=C\c1cn(-c2ccccc2)nc1-c1ccc(F)cc1,79.3
20,CN(C)c1ccc(C(=O)c2ccc(N(C)C)c3ccccc23)cc1,21.4
21,CCCCCn1c(CN2CCN(c3cc(Cl)ccc3C)CC2)nc2c1c(=O)[nH]c(=O)n2C,35.8
22,Cc1c(Cl)cccc1NC(=S)NCCc1ccc(C(F)(F)F)cc1,76
23,OC1CCCN(c2c3c(nc4cc(-c5cccc(F)c5)nn24)CCCC3)C1 (stereo unspecified),29.8
24,COc1cc(/C=C2\SC(=S)N(Nc3ncc(C(F)(F)F)cc3Cl)C2=O)ccc1O,62.9

row,Compound,inhibition [%]
1,CCCC[C@@H]1CNC(=S)N1CCC12CC3CC(CC(C3)C1)C2,63
2,Oc1ccccc1/C=N/Nc1ccccc1,62.1
3,Cc1cc(C)n(CCc2nc(-c3ccc(C(C)(C)C)cc3)cs2)n1,24.8
4,Cc1ccc(C(C)C)c(OCCNC(=S)Nc2cccc3ccccc23)c1,21.4
5,Cc1ccc(-c2cc(-c3n[nH]c(=S)n3C)c3ccccc3n2)cc1,28.6
6,CC(C)NC(=S)N/N=C/C1=CCC2CC1C2(C)C (stereo unspecified),48.2
7,CCOC(=O)N(C)OC(=O)Nc1ccc(Cl)c(Cl)c1,25.4
8,COc1ccccc1NC(=S)NCCSc1ccc(C)cc1,65.8
9,CC(C)(C)[C@H]1C=C(C(=O)N2CCN(Cc3ccccc3)CC2)O[C@@H](OCc2ccc(CO)cc2)C1,13.2
10,O=C(CCC1N=C2c3ccccc3N=C(SCc3cccc(Cl)c3)N2C1=O)NCc1ccco1 (stereo unspecified),1.64
11,COc1cc2nc(C3CCC3)nc(N3CCN(c4ccccc4OC)CC3)c2cc1OC,78.9
12,COC(=O)CSc1nc2cc3c(cc2cc1C)OCO3,68.1
13,S=c1[nH]c(-c2ccccc2)cn1/N=C/c1cccc2ccccc12,56.7
14,Cc1nc(NC(=O)c2ccco2)sc1-c1csc(Nc2ccc(Cl)cc2Cl)n1,35
15,O=C(CNC(=S)N(Cc1ccccc1)Cc1ccccc1F)NCCc1ccc(Cl)cc1,0.53
16,CC(C)N(C(=S)NC1CCCCC1)c1ccccc1,6.5
17,Clc1ccc(Nc2ncnc3ccc(Br)cc23)cc1,43.1
18,COc1ccc(CSCCNC(=S)Nc2ccccc2)cc1Cl,45.6
19,Cc1cc(C)c(S(=O)(=O)N2CCC(C(=O)NCc3ccc(Cl)cc3Cl)CC2)c(C)c1,73
20,Cc1cc(C)cc(OCCCOc2cccc3cccnc23)c1,66
21,Clc1cc(Cl)cc(C2=NCCC(c3ccccc3)O2)c1 (stereo unspecified),28.3
22,O=C(Nc1ccccn1)c1csc2c1CCCC2,58
23,O=C(CSc1nnc2n1CCCN2C(=S)Nc1ccc(Cl)cc1)c1ccccc1,38.1
